# According to the supplement of paper PMC4604168 (melanoma cell lines):
# This is one part of the list. Repeats are few or missing, and single values can be far off.
# Tested on: MEL-HO
# Assay: cell count relative to DMSO control; melanoma cells; higher = more viable cells
# Details: library dose: standard library concentration; 72 h
# 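Also: cells treated in 1,536-well plates, then fixed and DAPI-stained, with nuclei counted from automated high-throughput microscope images.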
row,Compound,cell count [%]
1,"Oc1cc(-c2nc(-c3ccccc3)[nH]c2-c2ccncc2)ccc1Cl + Oc1nc(-c2ccc(C(F)(F)F)cc2)nc2c1CSCC2 [XAV939] (first compound 1 µM, partner dose 10 µM)",87.4
2,"O=S(=O)(c1ccccc1)N(CC(F)(F)F)c1ccc(C(O)(C(F)(F)F)C(F)(F)F)cc1 + Oc1cc(-c2nc(-c3ccccc3)[nH]c2-c2ccncc2)ccc1Cl [L779450] (first compound 7 µM, partner dose 1 µM)",78.4
3,"N#Cc1c(O)c2c(-c3ccc(-c4ccccc4O)cc3)csc2[nH]c1=O + Oc1cc(-c2nc(-c3ccccc3)[nH]c2-c2ccncc2)ccc1Cl [L779450] (first compound 10 µM, partner dose 1 µM)",102

# Tested on: MZ2-MEL
# Assay: as above
# Details: library dose: standard library concentration; 72 h
row,Compound,cell count [%]
1,"Cn1cc(/C=C2\C(=O)Nc3cccnc32)c2ccccc21 + CCCCCCCCCCCC1=C(O)C(=O)C=C(O)C1=O [Embelin] (first compound 2 µM, partner dose 6 µM)",94.3
2,"COc1ccc2c(c1)CCC1C2CCC2(C)C(NCCCCCCN3C(=O)C=CC3=O)CCC12 (configuration not stated) + CCCCCCCCCCCC1=C(O)C(=O)C=C(O)C1=O [Embelin] (first compound 2 µM, partner dose 6 µM)",45.3
3,"COc1cc2ncnc(Nc3ccc(Oc4ccccc4)cc3)c2cc1OC + Cn1cc(/C=C2\C(=O)Nc3cccnc32)c2ccccc21 [GW441756] (first compound 10 µM, partner dose 2 µM)",58.9
4,"Cc1cc([N+](=O)[O-])ccc1NS(=O)(=O)c1cc(Cl)ccc1Cl + COc1cc(N2CCC(N3CCN(C)CC3)CC2)ccc1Nc1ncc(Cl)c(Nc2ccccc2S(=O)(=O)C(C)C)n1 [NVP-TAE684] (first compound 5 µM, partner dose 0.4 µM)",20.2
5,"N#Cc1c(O)c2c(-c3ccc(-c4ccccc4O)cc3)csc2[nH]c1=O + COc1cc(N2CCC(N3CCN(C)CC3)CC2)ccc1Nc1ncc(Cl)c(Nc2ccccc2S(=O)(=O)C(C)C)n1 [NVP-TAE684] (first compound 10 µM, partner dose 0.4 µM)",101
6,"O=S(=O)(c1ccccc1)N(CC(F)(F)F)c1ccc(C(O)(C(F)(F)F)C(F)(F)F)cc1 + Cc1cc([N+](=O)[O-])ccc1NS(=O)(=O)c1cc(Cl)ccc1Cl [FH535] (first compound 7 µM, partner dose 5 µM)",52.5
7,"COc1ccc(-c2ccc3c(N4CCOCC4)nc(N4C[C@@H](C)O[C@@H](C)C4)nc3n2)cc1CO + Oc1nc(-c2ccc(C(F)(F)F)cc2)nc2c1CSCC2 [XAV939] (first compound 0.1 µM, partner dose 10 µM)",79.2
8,"COc1ccc(-c2ccc3c(N4CCOCC4)nc(N4C[C@@H](C)O[C@@H](C)C4)nc3n2)cc1CO + O=C1NC(=O)/C(=C/c2ccc(-c3ccc(F)cc3O)o2)S1 [AS252424] (first compound 0.1 µM, partner dose 5 µM)",71.9
9,"COC(=O)c1sccc1S(=O)(=O)Nc1ccc(Nc2ccccc2)cc1OC + Cc1cc([N+](=O)[O-])ccc1NS(=O)(=O)c1cc(Cl)ccc1Cl [FH535] (first compound 5 µM, partner dose 5 µM)",72.2
10,"CCN(CC)CCCCNc1ncc2cc(-c3cc(OC)cc(OC)c3)c(NC(=O)NC(C)(C)C)nc2n1 + Cn1cc(/C=C2\C(=O)Nc3cccnc32)c2ccccc21 [GW441756] (first compound 0.5 µM, partner dose 2 µM)",81.1
11,"CCN(CC)CCCCNc1ncc2cc(-c3cc(OC)cc(OC)c3)c(NC(=O)NC(C)(C)C)nc2n1 + c1cc(-c2cnn3cc(-c4ccc(OCCN5CCCCC5)cc4)cnc23)ccn1 [Dorsomorphin] (first compound 0.5 µM, partner dose 2 µM)",69.8
12,"CCN(CC)CCCCNc1ncc2cc(-c3cc(OC)cc(OC)c3)c(NC(=O)NC(C)(C)C)nc2n1 + O=C(O)C(=O)Nc1sc2c(c1C(=O)O)CCNC2 [TCS401] (first compound 0.5 µM, partner dose 8.33333 µM)",104
13,"COc1ccc(COc2ccc(Cc3cnc(N)nc3N)cc2OC)cc1 + O=S(=O)(c1ccccc1)N(CC(F)(F)F)c1ccc(C(O)(C(F)(F)F)C(F)(F)F)cc1 [T0901317] (first compound 5 µM, partner dose 7 µM)",101
14,"O=S(=O)(c1ccccc1)N(CC(F)(F)F)c1ccc(C(O)(C(F)(F)F)C(F)(F)F)cc1 + Cn1cc(/C=C2\C(=O)Nc3cccnc32)c2ccccc21 [GW441756] (first compound 7 µM, partner dose 2 µM)",86.9
15,"Cn1cc(/C=C2\C(=O)Nc3cccnc32)c2ccccc21 + CC(C)CCN1c2nc(Nc3cc(F)c(O)c(F)c3)ncc2N(C)C(=O)C1C [BID1870] (first compound 2 µM, partner dose 1 µM)",97.7
16,"COC(=O)c1sccc1S(=O)(=O)Nc1ccc(Nc2ccccc2)cc1OC + COc1cc2ncnc(Nc3ccc(Oc4ccccc4)cc3)c2cc1OC [SrcI1] (first compound 5 µM, partner dose 10 µM)",55.8
17,"O=S(=O)(c1ccccc1)N(CC(F)(F)F)c1ccc(C(O)(C(F)(F)F)C(F)(F)F)cc1 + CCCCCCCCCCCC1=C(O)C(=O)C=C(O)C1=O [Embelin] (first compound 7 µM, partner dose 6 µM)",90.2

row,Compound,cell count [%]
1,"N#Cc1c(O)c2c(-c3ccc(-c4ccccc4O)cc3)csc2[nH]c1=O + COc1ccc(-c2ccc3c(N4CCOCC4)nc(N4C[C@@H](C)O[C@@H](C)C4)nc3n2)cc1CO [KU0063794] (first compound 10 µM, partner dose 0.1 µM)",88.6
2,"COc1ccc2c(c1)CCC1C2CCC2(C)C(NCCCCCCN3C(=O)C=CC3=O)CCC12 (configuration not stated) + CC(C)CCN1c2nc(Nc3cc(F)c(O)c(F)c3)ncc2N(C)C(=O)C1C [BID1870] (first compound 2 µM, partner dose 1 µM)",84.9
3,"Oc1cc(-c2nc(-c3ccccc3)[nH]c2-c2ccncc2)ccc1Cl + O=C1NC(=O)/C(=C/c2ccc(-c3ccc(F)cc3O)o2)S1 [AS252424] (first compound 1 µM, partner dose 5 µM)",78.7
4,"COc1ccc2c(c1)CCC1C2CCC2(C)C(NCCCCCCN3C(=O)C=CC3=O)CCC12 (configuration not stated) + c1cc(-c2cnn3cc(-c4ccc(OCCN5CCCCC5)cc4)cnc23)ccn1 [Dorsomorphin] (first compound 2 µM, partner dose 2 µM)",71.8
5,"Cn1cc(/C=C2\C(=O)Nc3cccnc32)c2ccccc21 + O=c1cc(-c2cccc3c2Sc2ccccc2S3)oc(N2CCOCC2)c1 [KU55933] (first compound 2 µM, partner dose 5 µM)",69.7
6,"O=S(=O)(c1ccccc1)N(CC(F)(F)F)c1ccc(C(O)(C(F)(F)F)C(F)(F)F)cc1 + O=c1cc(-c2cccc3c2Sc2ccccc2S3)oc(N2CCOCC2)c1 [KU55933] (first compound 7 µM, partner dose 5 µM)",81.5
7,"COc1ccc(COc2ccc(Cc3cnc(N)nc3N)cc2OC)cc1 + Oc1cc(-c2nc(-c3ccccc3)[nH]c2-c2ccncc2)ccc1Cl [L779450] (first compound 5 µM, partner dose 1 µM)",91.4
8,"N#Cc1c(O)c2c(-c3ccc(-c4ccccc4O)cc3)csc2[nH]c1=O + c1cc(-c2cnn3cc(-c4ccc(OCCN5CCCCC5)cc4)cnc23)ccn1 [Dorsomorphin] (first compound 10 µM, partner dose 2 µM)",86.8
9,"Oc1nc(-c2ccc(C(F)(F)F)cc2)nc2c1CSCC2 + COc1cc(N2CCC(N3CCN(C)CC3)CC2)ccc1Nc1ncc(Cl)c(Nc2ccccc2S(=O)(=O)C(C)C)n1 [NVP-TAE684] (first compound 10 µM, partner dose 0.4 µM)",106
10,"COc1ccc(-c2ccc3c(N4CCOCC4)nc(N4C[C@@H](C)O[C@@H](C)C4)nc3n2)cc1CO + O=S(=O)(c1ccccc1)N(CC(F)(F)F)c1ccc(C(O)(C(F)(F)F)C(F)(F)F)cc1 [T0901317] (first compound 0.1 µM, partner dose 7 µM)",64.2
11,"COc1ccc(COc2ccc(Cc3cnc(N)nc3N)cc2OC)cc1 + CC(C)CCN1c2nc(Nc3cc(F)c(O)c(F)c3)ncc2N(C)C(=O)C1C [BID1870] (first compound 5 µM, partner dose 1 µM)",86.7
12,"c1cc(-c2cnn3cc(-c4ccc(OCCN5CCCCC5)cc4)cnc23)ccn1 [Dorsomorphin] + CC(C)CCN1c2nc(Nc3cc(F)c(O)c(F)c3)ncc2N(C)C(=O)C1C [BID1870] (first compound 2 µM, partner dose 1 µM)",79.9
13,"N#Cc1c(O)c2c(-c3ccc(-c4ccccc4O)cc3)csc2[nH]c1=O + O=c1cc(-c2cccc3c2Sc2ccccc2S3)oc(N2CCOCC2)c1 [KU55933] (first compound 10 µM, partner dose 5 µM)",96.3
14,"N#Cc1c(O)c2c(-c3ccc(-c4ccccc4O)cc3)csc2[nH]c1=O + CCN(CC)CCCCNc1ncc2cc(-c3cc(OC)cc(OC)c3)c(NC(=O)NC(C)(C)C)nc2n1 [PD173074] (first compound 10 µM, partner dose 0.5 µM)",86.5
15,"Oc1cc(-c2nc(-c3ccccc3)[nH]c2-c2ccncc2)ccc1Cl + Oc1nc(-c2ccc(C(F)(F)F)cc2)nc2c1CSCC2 [XAV939] (first compound 1 µM, partner dose 10 µM)",88.9
16,"O=S(=O)(c1ccccc1)N(CC(F)(F)F)c1ccc(C(O)(C(F)(F)F)C(F)(F)F)cc1 + Oc1cc(-c2nc(-c3ccccc3)[nH]c2-c2ccncc2)ccc1Cl [L779450] (first compound 7 µM, partner dose 1 µM)",88.1
17,"N#Cc1c(O)c2c(-c3ccc(-c4ccccc4O)cc3)csc2[nH]c1=O + Oc1cc(-c2nc(-c3ccccc3)[nH]c2-c2ccncc2)ccc1Cl [L779450] (first compound 10 µM, partner dose 1 µM)",94
